Results: the supplement of paper PMC3334620
The full ranking holds about 33,000 sequences; the median of “E-score (-0.5 to 0.5)” is about -0.011, and the highest 2% start at about 0.28. Some of the results follow.

Each sequence was assayed against T1, Gcr1 (UniProt P07261) (assay: PBM E-score (8-mer binding enrichment) (E-score (-0.5 to 0.5)); higher = stronger / more preferred TF binding; most listed sequences are background and not binding sites). Conditions: protein concentration: 100 nM; construct: GST-full length.
T1 sequence: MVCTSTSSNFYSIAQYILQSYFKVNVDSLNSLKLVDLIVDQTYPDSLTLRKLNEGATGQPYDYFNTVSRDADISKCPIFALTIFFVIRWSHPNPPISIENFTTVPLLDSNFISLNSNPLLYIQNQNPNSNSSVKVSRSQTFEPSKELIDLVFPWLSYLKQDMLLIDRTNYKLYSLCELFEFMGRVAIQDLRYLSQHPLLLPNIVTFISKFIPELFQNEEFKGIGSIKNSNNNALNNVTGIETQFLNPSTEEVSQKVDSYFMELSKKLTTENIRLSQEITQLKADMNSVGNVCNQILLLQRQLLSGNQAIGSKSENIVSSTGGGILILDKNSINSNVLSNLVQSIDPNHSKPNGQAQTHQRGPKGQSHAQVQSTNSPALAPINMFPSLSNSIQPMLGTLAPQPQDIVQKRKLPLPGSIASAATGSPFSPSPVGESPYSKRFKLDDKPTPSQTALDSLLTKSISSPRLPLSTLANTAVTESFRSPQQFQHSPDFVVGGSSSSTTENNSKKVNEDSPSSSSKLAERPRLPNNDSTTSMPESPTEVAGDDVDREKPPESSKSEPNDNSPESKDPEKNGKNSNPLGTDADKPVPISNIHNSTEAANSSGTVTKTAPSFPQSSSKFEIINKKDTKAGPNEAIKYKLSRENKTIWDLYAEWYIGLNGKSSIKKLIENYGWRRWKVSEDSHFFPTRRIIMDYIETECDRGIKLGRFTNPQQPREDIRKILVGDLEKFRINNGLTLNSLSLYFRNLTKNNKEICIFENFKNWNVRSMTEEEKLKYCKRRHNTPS
Outline: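 Using PURExpress in vitro transcription/translation, GST-tagged yeast transcription factors were made in full-length or DNA-binding-domain form. These were applied at about 100-200 nM to double-stranded universal all-10-mer Agilent arrays, and bound protein was detected with fluorescent anti-GST. Scans were normalised with masliner before the Universal PBM Analysis Suite assigned E-scores to ungapped eight-base words pooled with their reverse complements.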
ATGGATAG was tested, and the “PBM E-score” value was -0.00601. For AGTTGCGC, the “PBM E-score” value was 0.0859. ATAGACAA was tested, and the “PBM E-score” value was -0.0747. For AACTACTG, the “PBM E-score” value was -0.0124. For CACGAGTA, the “PBM E-score” value was 0.0314. In the case of GGGGACAA, the “PBM E-score” value is reported as 0.0734. For TCACATGA, the “PBM E-score” value was -0.104. For GAATACGA, the “PBM E-score” value was 0.256. With CCAGACGG the “PBM E-score” value was -0.112. For ACAACTCA, the “PBM E-score” value was -0.0394. In the case of ATTGGAGA, the “PBM E-score” value is reported as 0.143. With CGGTGCGA the “PBM E-score” value was -0.0181. AATTGGAA was tested, and the “PBM E-score” value was 0.238. For CGATGCCC, the “PBM E-score” value was 0.0343. With AATAGGAA the “PBM E-score” value was 0.352. In the case of TGCCGAAA, the “PBM E-score” value is reported as 0.0514. In the case of CCGCTATA, the “PBM E-score” value is reported as 0.119. With AATCACCG the “PBM E-score” value was -0.0362. In the case of AGAGGTTA, the “PBM E-score” value is reported as 0.0121. In the case of GTACTCAA, the “PBM E-score” value is reported as 0.0758. With ACGTGGGA the “PBM E-score” value was -0.0793. With AATTCGAT the “PBM E-score” value was -0.0107. With AGGCTATC the “PBM E-score” value was -0.243. GTAGGCGA was tested, and the “PBM E-score” value was -0.0399. With AAACCGTT the “PBM E-score” value was -0.228. AGCAGCTG was tested, and the “PBM E-score” value was 0.311. For CGAGAGTA, the “PBM E-score” value was -0.121. In the case of AGTATAAG, the “PBM E-score” value is reported as -0.0218. With CGACAGTC the “PBM E-score” value was -0.234. In the case of CCAGAGAG, the “PBM E-score” value is reported as 0.00106. For CGCTGGCC, the “PBM E-score” value was -0.13. For GTAGCCAA, the “PBM E-score” value was 0.146. With AAGACCAC the “PBM E-score” value was -0.123. For CTCATTGA, the “PBM E-score” value was -0.052. In the case of AACTCGAT, the “PBM E-score” value is reported as -0.143. In the case of ACACTCCG, the “PBM E-score” value is reported as -0.12. In the case of CAGAGTGA, the “PBM E-score” value is reported as -0.0651. AGGATGGC was tested, and the “PBM E-score” value was -0.0982. For ATAAGATA, the “PBM E-score” value was 0.155. In the case of CAGTGTGC, the “PBM E-score” value is reported as -0.0936. In the case of CAGTTGCC, the “PBM E-score” value is reported as 0.0724. For AAATGGGT, the “PBM E-score” value was 0.136. In the case of ATTATGGA, the “PBM E-score” value is reported as 0.161. In the case of GCACAACC, the “PBM E-score” value is reported as -0.193. With CTGATCTC the “PBM E-score” value was -0.125. In the case of CAAATCTC, the “PBM E-score” value is reported as -0.0332. For ACCCTACT, the “PBM E-score” value was 0.054. With AAGGGGCA the “PBM E-score” value was -0.0333. In the case of GGGGTTTA, the “PBM E-score” value is reported as -0.117. For CTTCCTTA, the “PBM E-score” value was 0.153. In the case of GATGTTGA, the “PBM E-score” value is reported as 0.114. In the case of CCCTGTGC, the “PBM E-score” value is reported as 0.0369. In the case of CAAGCTGA, the “PBM E-score” value is reported as -0.139. In the case of ATGCAATG, the “PBM E-score” value is reported as -0.163. In the case of ATCGCTGC, the “PBM E-score” value is reported as 0.0242. GAGGCATC was tested, and the “PBM E-score” value was 0.0343. In the case of CCGGGGGA, the “PBM E-score” value is reported as -0.0656. AGACAGGA was tested, and the “PBM E-score” value was 0.269. For TGCAGCAA, the “PBM E-score” value was 0.144. In the case of AGTTTCGG, the “PBM E-score” value is reported as 0.143. GAAACGCC was tested, and the “PBM E-score” value was -0.193. GCCCGGAA was tested, and the “PBM E-score” value was 0.0517. For ACGTCCTG, the “PBM E-score” value was -0.0297. With CAGAATAG the “PBM E-score” value was 0.18. With CTGGGATC the “PBM E-score” value was 0.249. TAAAGCCA was tested, and the “PBM E-score” value was -0.0674. With AAGGCGCC the “PBM E-score” value was 0.258. CCAAGTCC was tested, and the “PBM E-score” value was 0.0545. For TCATGTCA, the “PBM E-score” value was 0.0214. GAGCCTGC was tested, and the “PBM E-score” value was -0.0426. In the case of AAACGGAC, the “PBM E-score” value is reported as 0.0362. CTTAAGAA was tested, and the “PBM E-score” value was 0.209. For CTCATTCA, the “PBM E-score” value was -0.0405. For CATTATAC, the “PBM E-score” value was 0.139. CCAGCCTC was tested, and the “PBM E-score” value was -0.026. For GCGTTGGA, the “PBM E-score” value was -0.137. ATGAGCCC was tested, and the “PBM E-score” value was -0.157. CCTGTCCA was tested, and the “PBM E-score” value was -0.0831. CCAGTGAG was tested, and the “PBM E-score” value was -0.0534. For AATCGTCC, the “PBM E-score” value was -0.115. With TACTCCGA the “PBM E-score” value was -0.0241. With TACGTCGA the “PBM E-score” value was -0.0822. CCACCGCG was tested, and the “PBM E-score” value was -0.0592. ACAAGGCT was tested, and the “PBM E-score” value was -0.134. For CTAACATC, the “PBM E-score” value was -0.094. With ATCATTGC the “PBM E-score” value was -0.157.
